Assay results as given in PubChem BioAssay AID1569 (National Center for Advancing Translational Sciences (NCATS), 2009).
Inconclusive means that the source gave no clear call. Such entries were picked first, then a sample of the others. Where the call is inconclusive, the potency comes from a doubtful curve fit. The source made the active and inactive calls. Calls come from the whole dose curve; as a rule, active = well fitted inhibition curve with a large enough effect; inconclusive = small, poorly fitted or top-dose-only effect, or effect the other way, or another doubt; inactive = no such curve, though single readings can be large or run the other way.

Assay: Confirmation Concentration-Response Assay for lipid storage modulators; note: nearly all actives have a fitted effect of over 80% in size;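 for activity change, negative = inhibition: -100% = full block of lipid deposition by 20 µM Triacsin C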
Conditions: Drosophila S3 cells, lipid droplet BODIPY/CellTracker ratio, 18-24 h; activity change, negative = inhibition: at 46.1 µM (top of the series)
In short: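 Cells at 5,000/well received compound as a titration plus oleic acid (added as 400 uM solution) and were incubated 18–24 h at 24 °C. BODIPY 493/503 lipid signal and CellTracker Red cell count were read by 488-nm laser-scanning cytometry. Activity was normalised to 20 uM Triacsin C.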
Potency is the fitted concentration of half-maximal effect; tags give direction and shape of the fitted curve.

Structure (SMILES)	Potency	activity change, negative = inhibition
Cc1csc2ncc(C(=O)NCCC(c3ccccc3)c3ccccc3)c(=O)n12	inconclusive: 1.77 µM [activator, full curve]	
COc1cccc(C(=O)Nc2ccc3c(c2)C(=O)N(CC2CCCO2)C3=O)c1 (configuration not stated)	inconclusive: 28.1 µM [falling, single point]	
COc1ccc(CCNC(=O)CN2C(=O)C(=O)N(C3CCCC3)C2=O)cc1OC	inconclusive: 9.96 µM [activator, partial curve, poor fit]	
COC(=O)c1c(-c2c(Cl)cccc2Cl)noc1NC(=O)NN1CCOCC1	active: 2.5 µM	
COc1ccc(OC)c(NC(=O)CSc2ncnc3c2cnn3-c2ccccc2Cl)c1	active: 1.77 µM	
O=C(Cc1ccc(S(=O)(=O)N2CCOCC2)s1)N1CCN(c2cccc(C(F)(F)F)c2)CC1	inconclusive: 35.3 µM [falling, single point]	
CCCCNC(=O)c1ccc2c(=O)n(CCCOCC)c(=S)[nH]c2c1	inconclusive: 4.99 µM [activator, partial curve]	
CCC1CCCCN1C(=O)c1cc(COc2ccc3ncccc3c2)on1 (configuration not stated)	active: 4.34 µM	
Cc1ccc(C(=O)NC(=S)Nc2ccc(N3CCN(C(=O)c4ccco4)CC3)cc2)cc1	inconclusive: 19.9 µM [falling, partial curve, poor fit]	
COc1ccc(CCNC(=O)CN2CCOc3ccccc32)cc1OC	inconclusive: 12.5 µM [activator, partial curve, poor fit]	
CCn1nc(C)c(NC(=O)/C=C/c2ccc(OC)c(COc3ccc(Br)cc3)c2)c1C	inconclusive: 0.0499 µM [activator, full curve, poor fit]	
Cc1ccc(NCc2ccc(O)c3ncccc23)cc1	inactive	
O=S(=O)(Nc1ccc(-c2nc3cccnc3s2)cc1)c1ccc(Cl)s1	inconclusive: 7.91 µM [activator, partial curve, poor fit]	
OCCNc1c2ccccc2nc2c(F)c(F)c(F)c(F)c12	active: 8.65 µM	
CCOc1ccc(CCNC(=O)COn2nnc3ccc(S(=O)(=O)N4CCOCC4)cc32)cc1OCC	inconclusive: 0.791 µM [activator, full curve, poor fit]	
CCn1cc(C(=O)OCc2cccc(Br)c2)c(=O)c2ccc(C)nc21	inconclusive: 0.223 µM [activator, full curve]	
COc1ccc(CCNC(=O)C/C(C)=N/NC(=O)c2ccc(N)cc2)cc1OC	inconclusive: 17.7 µM [activator, partial curve, poor fit]	
O=C(CN1CCN(c2ccccn2)CC1)Nc1cccc(Br)c1	inconclusive: 35.3 µM [falling, single point]	
COc1ccc(CCNC(=O)COc2ccc(-c3ccccc3)cc2)cc1OC	inactive	
Nc1ccc2nc(-c3ccccc3)sc2c1	inconclusive: 2.23 µM [activator, partial curve]	
COc1c(C)cc(C(=O)C2CCCN(C(=O)c3ccc4[nH]ccc4c3)C2)cc1C (configuration not stated)	active: 17.3 µM	
COc1ccc(CCNC(=O)C(Sc2ccccn2)c2ccccc2)cc1OC (configuration not stated)	inactive	
CCOc1ccc(CCNC(=O)c2cccnc2N2CCCC2)cc1OCC	inconclusive: 17.7 µM [activator, partial curve, poor fit]	

Structure (SMILES)	Potency	activity change, negative = inhibition
COc1cc(/C=N/NC(=O)c2ccc(CN3C(=O)c4cccc5cccc3c45)cc2)cc(OC)c1O	active: 4.99 µM	
Cc1cc2c(ncn2C)c(NS(=O)(=O)c2cc(Cl)ccc2Cl)c1C	inconclusive: 3.97 µM [activator, partial curve]	
COc1ccc(CCn2ccc(O)c(Cc3ccc(Cl)cc3)c2=O)cc1OC	active: 0.315 µM	
CCC(C)NC(=O)C1CCN(S(=O)(=O)c2ccc(-n3cnnn3)cc2)CC1 (configuration not stated)	inconclusive: 11.2 µM [activator, full curve, poor fit]	
COc1ccc(C(=O)Nc2cccc3cccnc23)cc1OC	inconclusive: 1.77 µM [activator, full curve]	
CCC(=O)N1CCc2cc(S(=O)(=O)N3CCN(C(=O)c4ccco4)CC3)ccc21	inconclusive: 17.7 µM [activator, partial curve]	
O=c1c2ccccc2nc(N2CCN(c3ccccc3)CC2)n1Cc1ccccc1	inconclusive: 1.77 µM [activator, full curve]	
CC(=O)c1c(C)oc2ccc(N(C(C)=O)S(=O)(=O)c3ccc(F)cc3C)cc12	inconclusive: 25 µM [falling, single point]	
COc1ccc(OC)c(CCNC(=O)Cn2sc3nc(C)cc(C)c3c2=O)c1	active: 4.99 µM	
COc1ccc(/C=C(\NC(=O)c2cccs2)C(=O)Nc2ccc(C)cc2)cc1OC	active: 0.141 µM	
Cc1ccc(N2C(=O)N(CC(=O)Nc3ccc(C)cc3Cl)C(=O)C2C)cc1 (configuration not stated)	inconclusive: 4.99 µM [activator, full curve]	
COc1cccc2c(=O)n(CC(=O)Nc3cccc(F)c3)ccc12	inconclusive: 4.99 µM [activator, full curve, poor fit]	
O=C(c1ccc(Br)o1)N1CCN(c2ccc3nnc(-c4ccc(F)cc4)n3n2)CC1	inconclusive: 0.628 µM [activator, full curve]	
Cc1ccc(S(=O)(=O)N(C)C)cc1NC(=O)COC(=O)c1sc2cc(Cl)ccc2c1Cl	active: 14.1 µM	
S=C(Nc1ccc2snnc2c1)N1CCN(c2ccccn2)CC1	inconclusive: 0.888 µM [activator, full curve]	
Cc1cnn(-c2ccc3nnc(-c4ccc(Br)cc4)n3n2)c1	inconclusive: 1.58 µM [activator, full curve]	
O=C(COC(=O)c1ccccc1O)Nc1cccc2ccccc12	inconclusive: 22.3 µM [activator, partial curve, poor fit]	
CCOc1ccc(CCNC(=O)COC(=O)c2ccc(OC(C)C)cc2)cc1OCC	active: 0.158 µM	
COc1ccc(CCNC(=O)c2cc(S(=O)(=O)N(C)C)ccc2N2CCCC2)cc1OC	inconclusive: 25 µM [activator, partial curve, poor fit]	
COc1ccc(CCNC(=O)c2oc3ccc(S(=O)(=O)N4CCOCC4)cc3c2C)cc1OC	inconclusive: 7.05 µM [activator, partial curve, poor fit]	
Cc1cc(C(=O)O[C@H]2[C@H](Cc3ccccc3)NS(=O)(=O)[C@H]3C[C@@H]4C=C[C@]23O4)ccc1[N+](=O)[O-]	inactive	
COC(c1ccccc1)c1nnc(CCC(=O)NC2C3CC4CC(C3)CC2C4)o1 (configuration not stated)	active: 5.6 µM	
Cc1cccc(Nc2nc(NCc3ccco3)nc(N3CCOCC3)n2)c1		inconclusive: 255% [activator]

Structure (SMILES)	Potency	activity change, negative = inhibition
O=c1ccc2ccc(OCCOc3cccc(Cl)c3)cc2o1	inconclusive: 4.99 µM [activator, full curve]	
O=S(=O)(NCCc1csc(-c2ccccc2)n1)c1cccnc1	inconclusive: 0.996 µM [activator, partial curve]	
COc1ccc(CCNC(=O)c2cc(-c3ccc(C)c(C)c3O)n[nH]2)cc1OC	inconclusive: 1.99 µM [activator, full curve]	
COc1ccc(CCNC(=O)CSc2nnc3ccc(-c4ccccn4)nn23)cc1OC	inconclusive: 1.77 µM [activator, full curve]	
CCOc1ccc(CCNC(=O)CSCc2ccc(C)cc2)cc1OCC	inactive	
Cc1c(C(=O)Nc2ccccn2)sc2nc3n(c(=O)c12)CCC3	inconclusive: 35.3 µM [falling, single point]	
CCN1CCc2c(sc(NC(=O)c3ccc(S(=O)(=O)N4CCCCCC4)cc3)c2C(=O)NC)C1	inconclusive: 9.96 µM [falling, single point]	
COc1ccc(CNC(=O)c2c(-c3cc(Cl)c(OC)c(Cl)c3)noc2C)cc1	inconclusive: 15.8 µM [activator, partial curve]	
CCN(CC)S(=O)(=O)c1cc(NC(=O)CNc2cccc(S(=O)(=O)N3CCOCC3)c2)ccc1C	active: 2.81 µM	
Cc1ccc(C(=O)NC2CCCc3c2cnn3-c2ccc(F)cc2F)cn1 (configuration not stated)	active: 3.97 µM	
Cc1cccc(C#Cc2ccccc2)n1	inconclusive: 7.91 µM [activator, full curve]	
c1ccc(-c2cc(N3CCOCC3)nc(-c3ccccc3)n2)cc1	inconclusive: 0.996 µM [activator, full curve, poor fit]	
CCC(=O)N(Cc1ccc(C)cc1)Cc1cc2cc3c(cc2[nH]c1=O)OCO3	inconclusive: 2.23 µM [activator, partial curve, poor fit]	
O=C(CCC1CCCN(C(=O)c2ccc3c(c2)OCCO3)C1)NCc1ccccc1F (configuration not stated)	active: 2.23 µM	
CCOC(=O)c1cc2c(ccn2-c2ccc(F)cc2)n1CC(=O)NC(C)(C)C	active: 1.41 µM	
CCCNC(=O)COC(=O)c1[nH]c(C)c(C(=O)OCC)c1C	inconclusive: 4.99 µM [activator, partial curve]	
CCOc1ccc(CCNC(=O)COC(=O)CCc2cc(OC)c(OC)c(OC)c2)cc1OCC	inactive	
Cc1cc(N2CCCC2=O)cc(C)c1S(=O)(=O)NCCOc1ccc(C(C)(C)C)cc1	active: 3.97 µM	
Cc1nc2ccccc2c2oc(C(=O)N3CCc4ccccc4C3)cc12	inconclusive: 0.628 µM [activator, full curve]	
COc1ccc2c(c1)c1nnc(SCC(=O)N3C(C)CCCC3C)nc1n2C (configuration not stated)	active: 3.53 µM	
Cc1nc2nc(-c3cccnc3)nn2c(C)c1Cl	inconclusive: 7.05 µM [activator, full curve]	
